Test results published in the RNAGym collection of RNA variant scans (doi:10.1073/pnas.2313332121).
Variants at the floor of the assay are shown more often than the library holds them.

B1: TPR 5TU (parent)
chain: GGAUCUUCUCGAUCUAACAAAAAAGACAAAUCUGCCACAAAGCUUGAGAGCAUCUUCGGAUGCAGAGGCGGCAGCCUUCGGUGGCGCGAUAGCGCCAACGUUCUCAACUAUGACACGCAAAACGCGUGCUCCGUUGAAUGGAGUUUAUCAUG

Variants of: B1
Test: polymerase ribozyme fitness, log enrichment relative to wild type (log ratio); higher = more active; in vitro selection for triplet polymerase activity
Procedure, shortened: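 Mutant libraries were PCR-built and transcribed for each subunit of a heterodimeric triplet polymerase ribozyme and selected for one round in triplicate at −7 °C, frozen, before gel excision of extended constructs and streptavidin-bead capture. Input and output libraries were Illumina-sequenced, keeping genotypes with ≥10 input reads and ≥1 read per output. Fitness is a logarithmic ratio of genotype to wild-type enrichment, in base 2, using inverse-variance-weighted replicate averages.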

Row | Variant | polymerase ribozyme fitness (log ratio)
1 | GGAUCUUCUCGAUCUAACAAAAAUGACAAAUCUGCCACAUAGCUUGAGAGCAUCUUCGGAAGCAGAGGCGGCAGCCUUCGGUGGCGCGAGAGCGCCAACGUUCUCAACUAUGACGCGCAAGACGCGUGCUCCGUUGAAUGCAGUUUAUCAUG | ≤ -4.2
2 | GGAUCUUCUCGAUCUAACAAAAAUGACAAAUCUGCCACAAAGCUUGUGAGAAUCUUCGGAUGCAGAGGCGGCAGCCUUCAGUGGCGCGAUAGCGCCAACGUUCUCAACUAUGACACGUAAAACGCGUGCUCCGUUGAAUGGAGUUUAUUAUG | ≤ -4.2
3 | GGAUCUUCUCGAUCUAACAAAAAUGACAAAUCUGCCACAAAGCUUGAGAGCCUCUUCGGAUGCAGAGGCGGCAGCCUUCGGUGGCGAGAUAGCGCCAACGUUCUCAACUAUGACACGCAAAACGCGUGCUCCGUUGAAUGGAGUUUAUCAUG | ≤ -4.2
4 | GGAUCUUCUCGAUCUAACAAAAAUGACAAAUCUGCCACACAGCUUGAGAGCAUCAUCGGGUGCAGAGGCGGCAGGCUUCGGUGGCGCGAUAGCGCGAACGUUCGCAACUAUGACACGCAAAACGCGUGCUCCGUUGAAUGGAGUUUAUCAUG | ≤ -4.2
5 | GGAUCUUCUCGAUCUAACAAAAAUGACAAAUCUGCCACUGAGCUUGAGAGAAUCUUCGGAUGCAGAAGCGGCAGCCUUCGGUGGCGCGAUAGGGCCAACGUUCUCAACUAUGACACGCAAAACGCGUGCUCCGUUGAAUGGAGUUUAUCAUG | ≤ -4.2
6 | GGAUCUUCUCGAUCUAACAAAAAUGACAAAUCUGCCACAAAGCUUGAGUGUAUCUUCGGAUGCAGAGGCAGCAGCCUUCGGUGGUGCGAUAGCGCCAACGUUCUCAACUAUUAAACGCAAAUCGCGUGCUCCGUUGAAUGGAGUUCAUCAUG | ≤ -4.2
7 | GGAUCUUCUCGAUCUAACAAAAAUGACAAAUCUGCCACACAGCAUGAGAGCAUCUUAGGAUGCAGAGGCGGCAGCCUUCGGUGGCGCGAUAGCGCCGACGUUCUAAACUACGACACGCAUAACGCGUGUUCUGUUGAAUGGAGUUUAUCAUG | ≤ -4.2
8 | GGAUCUUCUCGAUCUAACAAAAAUGACAAAUCUGCCACAAAGCUUGAGCGCAUCUUCGGAUGCAGAGGCGGCAGCCUUCGGUGGGUCGAUAGCGCCAACGUUCUCAACUAUGACACGCAAAACGCGUGCUCCGUUGAAUGGAGUUUAUCAUG | ≤ -4.2
9 | GGAUCUUCUCGAUCUAACAAAAAUGACAAAUCUGCCACAAAGCUUGAGAGCGUCUUCGGAUGCAGAGGCGGCAGCCUUGGGUGGCGCGAUAGCACCAACGUUCUCAGCUAUGACACGCAAAACGCGUGCUCCGUUGAAUGGAGUUUAUCAUG | ≤ -4.2
10 | GGAUCUUCUCGAUCUAACAAAAAUGACAAAUCUGCCACUAAGCUUGAGAGCAUCUUCGGAUGCAGAGGCGGCAGCCUUCGGUGGCGCGAUAGCGCAAAGGUUCUCAACUAUGACACGCAAAACGCGUGCCGCGUUGAAUGGAGUUUAUCAUG | ≤ -4.2
11 | GGAUCUUCUCGAUCUAACAAAAAUGACAAAUCUGCCACAAAGCUUGAGAGCCUCUUCGGAUGCAGAGGCGGCAGCCUUCGGUGGCGCGAUAGCGCCAACGUUCUCAACUAUGACACGCAAAACGCGUGCUCCGUUGAAUGGAGUUUAUCAUG | -0.457
12 | GGAUCUUCUCGAUCUAACAAAAAUGACAAAUCUGCCCCAAAGCUUGUGAGCAUCUUCGGAUGCAGAGGCGGCUGCCUUCUGUGGCGCGAUAGCGCCAAUGUUCUCAACUAUGACACGCAAAACGCGUGCUCCGUUGAAGGGAGUUUAUCAUG | ≤ -4.2
13 | GGAUCUUCUCGAUCUAACAAAAAUGACAAAUCUGCCACAAAGCUUGAGCGCAUCUUCGGAUGCAGAGGCGGCAGCCUUAGGUAGCGCGAUAGCGCCAACGUUCGCAACUAUGACACGCAAAACGCGUGCUCCGUUGAAUGGGGUUUAUCAUG | ≤ -4.2
14 | GGAUCUUCUCGAUCUAACAAAAAUGACAAAUCUGCCACAAGGCUUGAGAGCAUCUUCGGAUGCAGAGGCGGCAGCCUUCGGUGGCGCGAUAGCGCCAACGUUCUCAGCUAUGACACGCAAAACGCGUGCUCCGUUGAAUGGAGUUUAUCAUG | ≤ -4.2
15 | GGAUCUUCUCGAUCUAACAAAAAUGACAAAUCUGCCACAAUGCUUGAGAGCAUCUUCGGAUCCAGAGGCCGCAGCCUUCGGUGGGGCGAUAGCGCCAACGUUCUCAACUAUGACACGCAAAACGCGUGCUCCGUUGAAUGGAGUUUAUCAUA | ≤ -4.2
16 | GGAUCUUCUCGAUCUAACAAAAAUGACAAAUCUGCCGCAAAGCUUGAGAGCAUCUUCGGAUGCAGAGGCGGCAGCCUUCGGUGGCGCGAUAGGGCCAACGUUCUCAACUAUGACACGCAAAACGCGUGCUCCGUUGAAGGGAGUUUAUCAUG | ≤ -4.2
17 | GGAUCUUCUCGAUCUAACAAAAAUGACAAAUCUGCCACCACGCUUGAGAGCAUCUUCGGAUGCCGAGGCGGCAGCCUUCGGUGGCGCGAUAGCGCCAACCUUCUCAACUAUGACACGCAAAACGUGUGCUCCGUUUAAUGGAGUUUAUCAUG | ≤ -4.2
18 | GGAUCUUCUCGAUCUAACAAAAAUGACAAAUCUGCCGCAAAGCUUGAGAGCAUAUUCGGAUGCAGAGGCGGCAGCCUUCGGUGGGGCGAUAGCGCCAAUGUUCUCUACUAUGACACGCAAAACGCGUGCUCCCUUGAAUGGAGGUUAUCAUG | ≤ -4.2
19 | GGAUCUUCUCGAUCUAACAAAAAUGACAAAUCUGCCACAAUUCUUGAGAGCAUCUUCGGAUGCAGAGGCGGCAGCCUUCGGUGGCGUGAUAGCGCCAACGUUCUCAAUUAUGACACGCAAAACGCGUGCUCCGUUGAAUGGAGUUUAUCAUG | ≤ -4.2
